From the supplement of paper PMC12632987
The full ranking holds about 1,800 sequences; the median of “median log2 fold change of GCK-ALFA target abundance (FLAG IP / Myc IP barcode read proportion)” is about 0.14, and the lowest 2% start at about -0.84. The list shows a part of the results.

B1: traf2_out_1_27_1011 (protein)
chain: SEEEENRALREFFRERSKLSPEGRIELAKERVREALKEGIGEARHLAVVIILSEGDKELRERLLEAITETMREAGVSEEDIEEIRRQAESGFERLEKALK
B2: traf2_out_20_3_2248 (protein)
chain: EELKKEAEKLLKEIKKLLKEAEPLLPEEAAKKAKELLEEAEKYFKTDLTEALVKLSELRRLALEQAQAARAAGDEETAKLLEKLAEAAQRAMQKLYELIE
B3: traf2_out_11_169_852 (protein)
chain: EEKEKNRKIIDKALELNDKAKEELKKHALALAKEAGLDTAEVEAIFEAHKGKSLSAIAAALIAWFRAQGKEEEAAAVLAKYEELKEKINKEMTEFIKELE
B4: traf2_out_18_3_1911 (protein)
chain: SEEERKKISDKIDELVDEATAKARETLERLEREHPEFRERYRRLRADLEAGAGPFGILEALAELAKEAGDEELAAEIEAFLAEKRKEMQELVDEYEKLLK
B5: traf2_out_16_104_1404 (protein)
chain: AEAKQAEFDAIIAELEAIADKLQKIANKLYKLYLKADPETKVKLSDALVKASEARRAALEAAERAREARETGGDLAEARAALAKAKEEAAKVEKEVKELE
B6: traf2_out_17_178_1662 (protein)
chain: SKEEERKKISELTDELIDLAEDAAERMLELAEKEGDVSEEELEELREARRRGSATDVLALGERLIPKLKNSEELGALLEEFKARYRELSKEIAEAYERYE
B7: traf2_out_20_38_2037 (protein)
chain: SEEEEEEKKLQEVIDVANEALDKYEKKIAEWKAEGKTVEEIAEAAKEEVRRLLEEVGLEEEAEILVEDIDRALSSPDAERLIARILARAVALVKQKELNK
B8: traf2_out_17_60_1763 (protein)
chain: GPEEEKEELKREARRAIEEARRLVEEVRAKLAAGTLTASEAMDWLVELTEKRRELERLLEEAEKKGEEMEELKRELERAIEEVRRTMNEVGKHLLELLEA
B9: traf2_out_18_167_1822 (protein)
chain: SAETEAEIERLTDELVRVSEIRRLALLALEALRTDPAAADAARDALIAALNEVPEFRPDAAALRAAPRAELPALLERIAERAQRRAQELYERREELKKKQ
B10: traf2_out_11_104_642 (protein)
chain: LTREQAREFNDFAMEQNDKAKELLAAVAEHLAARGHEEEAARVRAALAHPGFGASSYKNLLEELLPQLDAESAAVAQEAIKKIEELIKEASKKLNELEKK
B11: traf2_out_20_3_2088 (protein)
chain: EELEKKLKEALEKAKELIEKAIKLADEETAKKLKELKKKLEEAEKLPLDEQLVALSEVRRELLELAEKAKKEGKEELAKILEKAAEEVNKAMNLAYKIIE
B12: traf2_out_6_156_2425 (protein)
chain: MLEKIKAEAKEEIKKYIKELAKASEEKKIAYISKIAGAVYRALQRMREAGASVEELKAFGEELKATAKKAADEAGLDEETKNLLLSSIDAVTEVALREAA
B13: traf2_out_20_3_2258 (protein)
chain: EELEKEAEKKLKEAEKLFKELAPKLPAETAKKAEELLKKAKEYFKTDKSEALVYVSELRQLALEEAERARAAGDEATAAGLEKLADTLNKLANLLYKIIQ
B14: traf2_out_18_3_1934 (protein)
chain: SEEERKEISDKIDEIVDDVRARARAELDRAAAELPEHADRIAALRAALEAGAAPFGILDALAELYREAGREEEAEAIEEYLREKRKEMQELVDEYEKLIK
B15: traf2_out_17_178_1679 (protein)
chain: TKEEERKKISEYTDKLIDLTEATGTTLLARARADGTISPEELAALEAAIRRGSNRTFLALARRIAPKLATAAEAQALLDAFEAEARELEKKIAEAYEKYE
B16: traf2_out_16_177_1462 (protein)
chain: ELDKIMDRIVVLSKIKRAAEYAIENKKEEAEKYLKEAEKEAEEAGDEEGLKKIKELKELMEKNTEEAKKKLKELAKEAQKEAGKLVDEAEALLKARAAAE
B17: traf2_out_11_169_809 (protein)
chain: EEEEKNREINDFALELNDEARARLKERALELAKAAGLDPAAVEAIFAANAGKSLSAVAAALIAYFKSQGAEAAAAEVLALHEELKDEINKEMTKKIKELE
B18: traf2_out_15_180_1328 (protein)
chain: MTEEELEKRIALASEVADKVQDFLDKLLAEHPELSEEQKAALRELARSVLTLLLNGEEEEAEAVLKRFKEKVDEETAKIAEELYEFAKKQVEEAKKELAA
B19: traf2_out_20_38_2043 (protein)
chain: SEEEEERRRLEEDVKIANEALDEVEAEFAELKAAGKSLAEIAAWAKARVRELFAEAGLEELVPEYLADIDTVADSPDAERLITRILARALARVRRAKAKK
B20: traf2_out_20_3_2176 (protein)
chain: EELEKELEKELEKAEKLIKEAAKLADEETAKKLKELIERLKKSRELSYEDQLVVLSEIRRELLEMAEKARAEGKEELAKVLEEAADAINKAMNLVYKIIE
B21: traf2_out_18_167_1842 (protein)
chain: EEEIRRRREELSDRLVALSELRRAARAALQALATDPSQVPATLAALEAAAAAVPELQPLVAAARAALAAGDREGLRATLEELIARAQRLAQEVLKEYEAL
B22: traf2_out_5_189_2320 (protein)
chain: SEREEEERRLRELAKRLAKEASELLNRLEKEGKSYEEIKEELLKRLEELSIEEANLYLGIAYAILLGRALAENDKELEKAAKEFRKEGLALIEERKKKAA
B23: traf2_out_16_104_1384 (protein)
chain: SAARDAEFDAIIARLEEIAERAQKIANELYKLYEKASPEEKEKLSDALVEVSEIRRRALEAAIAAREAREAGGDVAEARAALEELEKRLKEAEKKVKELK
B24: traf2_out_18_157_1818 (protein)
chain: MSDEELLELAKFAQEAADRFEDLVEELADASLEEFVEALEKLAKELIKEGKKFPKETVLDLLKRQARRAVRRWGERRGLSEEEVEEAVERVEEFIKKEIE
B25: traf2_out_18_3_1940 (protein)
chain: KEEKLKEVSEKIDEIIDEVTARAREALARLAAEHPEHAARAAALAADLEAGAGPFGILEELAELWREAGDEAAAAALEAFLAAKRKELQKLVDEYEKLRK
B26: traf2_out_12_187_954 (protein)
chain: SVKEELLKAAKEAYERAVKLLEKYAGEDPFVQELLEKLKELKELLEKHPEIAADFLVAASAIIRYMRLIEEGAPEEEIEAARKEAEKLLEEALKEAKKLE
B27: traf2_out_20_38_2012 (protein)
chain: SEEEKEKEKEEKLIEHANEAYDRAEAWVAALQAAGKSVAEIAAEAKKRIRELLTAHGLEEEAEELIEDVDRVLDSPDAERLIVQILARAETLVFQKELQK
B28: traf2_out_11_169_802 (protein)
chain: KEAEKNRKINDFALELNDEAKEKLKKFALELAKEAGLDVEEVKKIFEEHKNASLSEVAAALIKYFKSKGKEEVAKKILEKYEELKEEINEKGTKKIKELE
B29: traf2_out_20_3_2105 (protein)
chain: EELEREYEEELERAERLLEEAAELADPETAERLRELRERVRRSRELPYTDRLVELSEVRREVLRLAEEARAAGDEELARVLEEAAEELNEAMNLVMQIIE

Molecular target: T1, TRAF2, Q12933
T1 chain: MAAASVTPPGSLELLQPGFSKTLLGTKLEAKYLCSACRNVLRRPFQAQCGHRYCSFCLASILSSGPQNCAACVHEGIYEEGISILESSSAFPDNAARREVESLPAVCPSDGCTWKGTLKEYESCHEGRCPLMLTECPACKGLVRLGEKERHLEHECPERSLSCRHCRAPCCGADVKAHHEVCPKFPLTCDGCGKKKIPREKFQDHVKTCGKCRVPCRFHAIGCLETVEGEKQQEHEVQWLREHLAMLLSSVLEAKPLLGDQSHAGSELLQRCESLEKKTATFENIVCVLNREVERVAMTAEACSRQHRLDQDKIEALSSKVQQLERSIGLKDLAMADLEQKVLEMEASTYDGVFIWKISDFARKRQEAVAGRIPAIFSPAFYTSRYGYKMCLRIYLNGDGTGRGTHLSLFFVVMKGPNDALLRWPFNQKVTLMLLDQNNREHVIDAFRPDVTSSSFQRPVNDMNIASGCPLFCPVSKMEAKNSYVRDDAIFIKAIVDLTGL
Assay: median log2 fold change of GCK-ALFA target abundance (FLAG IP / Myc IP barcode read proportion) (log2 ratio); each designed protein is fused to an ALFA-tag nanobody in HEK293 cells to bring the named protein to FLAG-tagged glucokinase (GCK); Myc marks an untargeted standard; higher = target protein stabilised (more abundant)
Settings: target protein: 3xFLAG-MCP-GCK-ALFA reporter; HEK293 landing pad (RPLP)
How it was run: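 HEK293 landing-pad cells received a recombined binder library fused to the ALFA nanobody and were induced with 2 μg mL^−1 doxycycline, then transfected with a plasmid encoding a FLAG-tagged target and a Myc-tagged standard. Lysates were collected after 48 h for anti-FLAG and anti-Myc immunoprecipitation, and the circular RNA barcodes were reverse transcribed, amplified and sequenced. Target abundance for each binder is the median log2 ratio of FLAG to Myc barcode read proportions. Barcodes had to reach a proportion of at least 10^−7 in both replicates, each binder needed at least 3 barcodes per replicate, a pseudocount of 10^−6 was applied, and the two replicates were pooled.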

Row | Binder | median log2 fold change
1 | B1 | 0.232
2 | B2 | 0.3
3 | B3 | 0.464
4 | B4 | 0.276
5 | B5 | 0.341
6 | B6 | 0.161
7 | B7 | -1.45
8 | B8 | -0.0301
9 | B9 | 0.336
10 | B10 | 0.0806
11 | B11 | 0.0022
12 | B12 | 0.111
13 | B13 | 0.384
14 | B14 | 0.196
15 | B15 | 0.291
16 | B16 | -0.0546
17 | B17 | 0.202
18 | B18 | 0.251
19 | B19 | 0.244
20 | B20 | 0.126
21 | B21 | 0.287
22 | B22 | 0.109
23 | B23 | 0.769
24 | B24 | 0.132
25 | B25 | 0.191
26 | B26 | 0.306
27 | B27 | 0.283
28 | B28 | 0.34
29 | B29 | 0.172
